The source gives many values for each of these; only a part stands here.
Test system: PRISM panel of 845 cancer cell lines
Assay: PRISM assay
Format: cell-based, human
Description: The PRISM cell set comprised 845 cell lines representing more than 45 lineages (see Supplementary Table S1 for cell line information), which largely overlapped with the Cancer Cell Line Encyclopedia; https://portals.broadinstitute.org/ccle). Cell lines were grown in RPMI without phenol red and supplemented with 10% or 20% FBS for adherent and suspended lines, respectively. Parental cell lines were stably infected with a unique 24-nucleotide DNA barcode via lentiviral transduction and blasticidin selection. After selection, barcoded cell lines were expanded and subjected to quality control (Mycoplasma contamination test, an SNP test for confirming cell line identity, and barcode ID confirmation). Approved cell lines were then pooled (20–25 cell lines per pool) based on doubling time similarity and frozen in assay-ready vials.
RMC-6236 was added to 384-well plates at 8-point concentration with 3-fold dilutions in triplicate. These assay-ready plates were then seeded with the thawed cell line pools. Adherent cell pools were plated at 1,250 cells per well, whereas suspension and mixed adherent/suspension pools were plated at 2,000 cells per well. Treated cells were incubated for 5 days, and then lysed. Lysate plates were collapsed together prior to barcode amplification and detection.
Each cell line's unique barcode is located in the 3′UTR of the blasticidin-resistance gene and therefore is expressed as mRNA. Total mRNA was captured using magnetic particles that recognize polyA sequences. Captured mRNA was reverse-transcribed into cDNA and then the sequence containing the unique PRISM barcode was amplified using PCR. Finally, Luminex beads that recognize the specific barcode sequences in the cell set were hybridized to the PCR products and detected using a Luminex scanner which reports the signal as a median fluorescent intensity (MFI).
• Each detection well contained 10 control barcodes in increasing abundances as spike-in controls. For each plate, we first create a reference profile by calculating the median of the log2(MFI) values across negative control wells for each of these spiked-in barcodes. • For each well, a monotonic smooth p-spline was fitted to map the spike-in control levels to the reference profile. Next, we transform the log2(MFI) for each cell barcode using the fitted spline to allow well-to-well comparisons by correcting for amplification and detection artifacts. • Next, the separability between negative and positive control treatments was assessed. In particular, we calculated the error rate of the optimum simple threshold classifier between the control samples for each cell line and plate combination. The error rate is a measure of the overlap of the two control sets and was defined as error = (FP + FN)/n, where FP is false positives, FN is false negatives, and n is the total number of controls. A threshold was set between the distributions of positive and negative control log2(MFI) values (with everything below the threshold said to be positive and above said to be negative) such that this value is minimized. Additionally, we also calculated the dynamic range of each cell line. […] Additionally, any cell line that had less than 2 passing replicates was also omitted for the sake of reproducibility. Finally, we computed viability by normalizing with respect to the median negative control for each plate.
For every gene with nonsilent mutations in at least four cell lines, we compared the AUC values between cells with and without those mutations using a t test. This analysis was carried out for (i) the full data set; (ii) excluding cell lines with nonsilent KRAS mutations; and (iii) excluding cell lines that have either KRAS or NRAS nonsilent mutations.

With `CCn1c(-c2cc(N3CCN(C)CC3)cnc2[C@H](C)OC)c2c3cc(ccc31)-c1csc(n1)C[C@H](NC(=O)[C@H]1C[C@@H]1C)C(=O)N1CCC[C@H](N1)C(=O)OCC(C)(C)C2` [RMC-6236] the “RMC-6236: RevMed PRISM: AUC” value (JJN3_HAEMATOPOIETIC_AND_LYMPHOID_TISSUE, NRAS p.Q61K) was 0.5016, the “RMC-6236: RevMed PRISM: AUC” value (JM1_HAEMATOPOIETIC_AND_LYMPHOID_TISSUE) was 0.9157 and the “RMC-6236: RevMed PRISM: AUC” value (JMSU1_URINARY_TRACT) was 0.9046. The “RMC-6236: RevMed PRISM: AUC” value (JOPACA1_PANCREAS, KRAS p.G12V) was 0.3607, the “RMC-6236: RevMed PRISM: AUC” value (JVM3_HAEMATOPOIETIC_AND_LYMPHOID_TISSUE) was 0.8423 and the “RMC-6236: RevMed PRISM: AUC” value (KATOIII_STOMACH) was 0.6304. For the same compound, the “RMC-6236: RevMed PRISM: AUC” value (KE37_HAEMATOPOIETIC_AND_LYMPHOID_TISSUE, NRAS p.G12D) was 0.6632, the “RMC-6236: RevMed PRISM: AUC” value (KHM1B_HAEMATOPOIETIC_AND_LYMPHOID_TISSUE, KRAS p.G12C) was 0.6016 and the “RMC-6236: RevMed PRISM: AUC” value (KMBC2_URINARY_TRACT) was 0.4217. For the same compound, the “RMC-6236: RevMed PRISM: AUC” value (KMCH1_BILIARY_TRACT) was 0.9105, the “RMC-6236: RevMed PRISM: AUC” value (KMRC20_KIDNEY) was 0.7172 and the “RMC-6236: RevMed PRISM: AUC” value (KMS12BM_HAEMATOPOIETIC_AND_LYMPHOID_TISSUE) was 0.9588. The “RMC-6236: RevMed PRISM: AUC” value (KMS21BM_HAEMATOPOIETIC_AND_LYMPHOID_TISSUE, NRAS p.Q61L) was 0.6256, the “RMC-6236: RevMed PRISM: AUC” value (KMS28BM_HAEMATOPOIETIC_AND_LYMPHOID_TISSUE, KRAS p.G12A) was 0.8006 and the “RMC-6236: RevMed PRISM: AUC” value (KNS60_CENTRAL_NERVOUS_SYSTEM) was 0.8532. The “RMC-6236: RevMed PRISM: AUC” value (KNS62_LUNG, HRAS p.Q61L) was 0.5904, the “RMC-6236: RevMed PRISM: AUC” value (KON_UPPER_AERODIGESTIVE_TRACT) was 0.4878 and the “RMC-6236: RevMed PRISM: AUC” value (KP3_PANCREAS, KRAS p.G12V) was 0.5452. The “RMC-6236: RevMed PRISM: AUC” value (KP4_PANCREAS, KRAS p.G12D) was 0.699, the “RMC-6236: RevMed PRISM: AUC” value (KS1_CENTRAL_NERVOUS_SYSTEM) was 0.7035 and the “RMC-6236: RevMed PRISM: AUC” value (KU812_HAEMATOPOIETIC_AND_LYMPHOID_TISSUE) was 0.6659. The “RMC-6236: RevMed PRISM: AUC” value (KURAMOCHI_OVARY) was 0.9644, the “RMC-6236: RevMed PRISM: AUC” value (KYM1_SOFT_TISSUE) was 0.6118 and the “RMC-6236: RevMed PRISM: AUC” value (KYO1_HAEMATOPOIETIC_AND_LYMPHOID_TISSUE) was 0.52. For the same compound, the “RMC-6236: RevMed PRISM: AUC” value (KYSE70_OESOPHAGUS) was 0.7378, the “RMC-6236: RevMed PRISM: AUC” value (KYSE140_OESOPHAGUS) was 0.7127 and the “RMC-6236: RevMed PRISM: AUC” value (KYSE180_OESOPHAGUS) was 0.7308. The “RMC-6236: RevMed PRISM: AUC” value (KYSE270_OESOPHAGUS) was 0.751, the “RMC-6236: RevMed PRISM: AUC” value (KYSE520_OESOPHAGUS) was 0.7057 and the “RMC-6236: RevMed PRISM: AUC” value (L33_PANCREAS, KRAS p.G12D) was 0.6282. For the same compound, the “RMC-6236: RevMed PRISM: AUC” value (LAMA84_HAEMATOPOIETIC_AND_LYMPHOID_TISSUE) was 0.511, the “RMC-6236: RevMed PRISM: AUC” value (LC1SQSF_LUNG) was 0.7959 and the “RMC-6236: RevMed PRISM: AUC” value (LCLC103H_LUNG) was 0.8089. For the same compound, the “RMC-6236: RevMed PRISM: AUC” value (LK2_LUNG) was 0.6661, the “RMC-6236: RevMed PRISM: AUC” value (LMSU_STOMACH) was 0.8111 and the “RMC-6236: RevMed PRISM: AUC” value (LN18_CENTRAL_NERVOUS_SYSTEM) was 0.7558. The “RMC-6236: RevMed PRISM: AUC” value (LN229_CENTRAL_NERVOUS_SYSTEM) was 0.8162, the “RMC-6236: RevMed PRISM: AUC” value (LN464_CENTRAL_NERVOUS_SYSTEM) was 0.8914 and the “RMC-6236: RevMed PRISM: AUC” value (LNCAPCLONEFGC_PROSTATE) was 0.8567. For the same compound, the “RMC-6236: RevMed PRISM: AUC” value (LOUNH91_LUNG) was 0.3593, the “RMC-6236: RevMed PRISM: AUC” value (LPS141_SOFT_TISSUE) was 1 and the “RMC-6236: RevMed PRISM: AUC” value (LS180_LARGE_INTESTINE, KRAS p.G12D) was 0.4318. The “RMC-6236: RevMed PRISM: AUC” value (LS1034_LARGE_INTESTINE, KRAS p.A146T) was 0.6768, the “RMC-6236: RevMed PRISM: AUC” value (LU99_LUNG, KRAS p.G12C) was 0.5232 and the “RMC-6236: RevMed PRISM: AUC” value (LUDLU1_LUNG) was 0.6736. The “RMC-6236: RevMed PRISM: AUC” value (M059K_CENTRAL_NERVOUS_SYSTEM) was 0.8426.

— publication PMC11149917, “Translational and Therapeutic Evaluation of RAS-GTP Inhibition by RMC-6236 in RAS-Driven Cancers” (Cancer Discovery, 2024)
